Measurements: the supplement of paper PMC7826260
The other results are listed elsewhere or left out. Cleavage of a single-stranded DNA pool by Rep nickase domains was read by sequencing (3 µM enzyme, 1 h, 37 °C); shown is the middle of each 90-letter strand. A value is the log2 ratio of uncut reads to the pool without enzyme; more negative means more cut, near 0 not cut, and no call is made. The scaling is to total reads; values above 0 arise when much of the pool is cut.

Key:
Assay in all cases: uncleaved DNA left, log2 of reads against the no-enzyme library (log2 ratio); higher = less cleavage (more negative = more Rep cleavage of the k-mer); sequences stand for … in CTCGTCCG…ACCGGAGA
[1] = tested on: T1, Rep nickase domain of Muscovy duck circovirus
T1 sequence (residues 1-111, tag not shown): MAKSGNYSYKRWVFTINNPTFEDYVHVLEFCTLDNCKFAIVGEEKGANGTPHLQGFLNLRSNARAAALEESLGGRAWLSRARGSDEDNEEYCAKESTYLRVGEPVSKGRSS
Description: (§1)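 A pool of 90-nt single-stranded DNAs with seven random bases just before the constant AC of the nick site (name = the seven bases) was cut by 3 µM recombinant His6-SUMO-tagged Rep nickase domain (300 nM DNA, 50 mM HEPES pH 8.0, 50 mM NaCl, 1 mM MnCl2, 1 h, 37 °C, three replicates). Uncut DNA was amplified and sequenced.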

[2] = tested on: T2, Rep nickase domain of banana bunchy top virus
T2 sequence (residues 1-94, tag not shown): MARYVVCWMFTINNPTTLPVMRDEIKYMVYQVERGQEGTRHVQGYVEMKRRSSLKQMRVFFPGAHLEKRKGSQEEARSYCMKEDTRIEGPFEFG
Description: as §1

[3] = tested on: T3, Rep nickase domain of cabbage leaf curl virus
T3 sequence (residues 1-116, tag not shown): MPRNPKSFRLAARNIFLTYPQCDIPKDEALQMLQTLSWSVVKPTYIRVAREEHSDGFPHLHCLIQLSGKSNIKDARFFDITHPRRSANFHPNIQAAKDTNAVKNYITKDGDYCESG
Description: as §1

[4] = tested on: T4, Rep nickase domain of chickpea chlorotic dwarf virus
T4 sequence (residues 1-124, tag not shown): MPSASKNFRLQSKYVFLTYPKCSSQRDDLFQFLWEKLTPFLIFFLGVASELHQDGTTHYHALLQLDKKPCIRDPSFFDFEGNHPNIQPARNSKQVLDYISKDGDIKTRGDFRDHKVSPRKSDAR
Description: as §1

[5] = tested on: T5, Rep nickase domain of faba bean necrotic yellows virus
T5 sequence (residues 1-98, tag not shown): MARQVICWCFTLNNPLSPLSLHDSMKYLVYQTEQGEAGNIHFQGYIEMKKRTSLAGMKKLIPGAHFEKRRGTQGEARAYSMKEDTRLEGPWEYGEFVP
Description: as §1

[6] = tested on: T6, Rep nickase domain of maize striate mosaic virus
T6 sequence (residues 1-117, tag not shown): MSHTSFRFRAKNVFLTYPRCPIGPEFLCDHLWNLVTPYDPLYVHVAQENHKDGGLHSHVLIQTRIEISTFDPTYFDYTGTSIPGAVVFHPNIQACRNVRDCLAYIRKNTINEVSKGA
Description: as §1

[7] = tested on: T7, Rep nickase domain of porcine circovirus 2
T7 sequence (residues 2-116, tag not shown): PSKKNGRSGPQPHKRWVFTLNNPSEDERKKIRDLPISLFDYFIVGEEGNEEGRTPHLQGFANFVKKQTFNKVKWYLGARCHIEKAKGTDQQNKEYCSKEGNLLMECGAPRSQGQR
Description: as §1

[8] = tested on: T8, Rep nickase domain of tomato golden mosaic virus
T8 sequence (residues 1-124, tag not shown): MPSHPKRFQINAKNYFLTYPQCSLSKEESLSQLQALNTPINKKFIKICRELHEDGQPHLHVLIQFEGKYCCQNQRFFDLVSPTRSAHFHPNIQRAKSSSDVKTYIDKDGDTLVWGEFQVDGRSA
Description: as §1

[9] = tested on: T9, Rep nickase domain of tomato yellow leaf curl virus
T9 sequence (residues 1-136, tag not shown): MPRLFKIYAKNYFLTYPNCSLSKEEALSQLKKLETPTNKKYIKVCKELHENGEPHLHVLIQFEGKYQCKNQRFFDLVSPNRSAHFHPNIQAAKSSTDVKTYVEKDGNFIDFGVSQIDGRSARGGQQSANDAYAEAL
Description: as §1

[10] = tested on: T10, Rep nickase domain of wheat dwarf virus
T10 sequence (residues 1-137, tag not shown): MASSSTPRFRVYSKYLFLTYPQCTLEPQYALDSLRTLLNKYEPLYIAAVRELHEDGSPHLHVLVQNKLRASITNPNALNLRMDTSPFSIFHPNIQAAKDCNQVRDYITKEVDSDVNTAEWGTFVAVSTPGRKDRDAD
Description: as §1

| Sequence | uncleaved DNA left (log2) [1] | uncleaved DNA left (log2) [2] | uncleaved DNA left (log2) [3] | uncleaved DNA left (log2) [4] | uncleaved DNA left (log2) [5] | uncleaved DNA left (log2) [6] | uncleaved DNA left (log2) [7] | uncleaved DNA left (log2) [8] | uncleaved DNA left (log2) [9] | uncleaved DNA left (log2) [10] |
| --- | --- | --- | --- | --- | --- | --- | --- | --- | --- | --- |
| TCGCCGC | 0.0398 | -0.0178 | -0.36 | -0.469 | -0.0569 | -0.605 | 0.012 | -0.147 | 0.00485 | -0.165 |
| CAACCAA | -0.296 | -0.0903 | -0.322 | -1.84 | -0.0729 | -0.769 | -0.92 | -0.139 | -0.205 | -0.113 |
| GTATGGC | 0.0324 | 0.0122 | 0.112 | 0.561 | 0.00549 | 0.0219 | 0.00124 | 0.079 | 0.0733 | 0.0304 |
| GATTTGA | 0.0933 | 0.122 | 0.362 | 0.598 | 0.0208 | 0.294 | 0.0912 | 0.1 | 0.192 | 0.128 |
| GCTTGGC | 0.12 | -0.0195 | -0.00311 | 0.347 | -0.00506 | -0.285 | 0.0554 | 0.106 | 0.113 | -0.0816 |
| GGCTAAG | 0.16 | 0.159 | -0.0225 | 0.0871 | 0.138 | -0.244 | 0.243 | 0.0932 | 0.21 | 0.0503 |
| CAGTCAT | -0.059 | -0.982 | 0.194 | -0.536 | -0.229 | 0.358 | -3.89 | 0.0509 | 0.221 | 0.144 |
| GGATGGT | -0.0558 | 0.161 | 0.615 | 1.14 | 0.0369 | 1.85 | -0.334 | 0.0478 | 0.0182 | 0.168 |
| CTGATTT | -0.0867 | -0.316 | -0.214 | -2.13 | -0.237 | -0.594 | -0.676 | -0.18 | -0.173 | -0.221 |
| GGTGTGG | 0.0587 | -0.0724 | 0.179 | 0.464 | -0.0447 | 0.339 | -0.00475 | -0.114 | -0.061 | -0.115 |
| GCACAAC | 0.0336 | 0.105 | 0.105 | -0.396 | 0.0482 | -0.136 | 0.198 | -0.0205 | 0.0301 | 0.0866 |
| TATATGC | 0.0321 | -0.0104 | -0.554 | -0.532 | 0.0243 | -1.13 | 0.128 | -0.0322 | 0.0611 | 0.0203 |
| ATAGCGC | -0.00124 | -0.0803 | -0.856 | 0.0192 | 0.0851 | -0.842 | -0.088 | -0.0856 | 0.016 | -0.183 |
| CGTCCTA | -0.0246 | 0.0431 | 0.0489 | -0.281 | -0.0684 | -0.245 | -0.219 | -0.0897 | 0.0636 | 0.0156 |
| GCATATC | 0.121 | 0.0964 | 0.192 | 0.536 | 0.0569 | -0.146 | 0.116 | 0.0365 | 0.18 | 0.271 |
| TACCCAA | -0.0952 | 0.0246 | -0.0959 | -1.52 | -0.128 | -0.414 | -1.26 | -0.0618 | 0.0293 | 0.107 |
| AGACAAA | 0.0299 | 0.0745 | 0.653 | 1.36 | 0.1 | 1.41 | 0.149 | 0.0425 | 0.0185 | 0.155 |
| CTGTGAG | 0.0734 | -0.0992 | -0.673 | -0.253 | 0.0849 | -1.09 | 0.0353 | -0.126 | 0.139 | -0.0659 |
| ACAACAA | -0.035 | -0.0453 | -0.165 | -0.541 | 0.0592 | -0.763 | 0.105 | 0.00212 | -0.123 | -0.0177 |
| CCTAGTT | 0.127 | -0.0638 | 0.014 | -1.99 | -0.149 | -0.473 | -0.229 | -0.113 | 0.0735 | -0.0937 |
| ACACAAT | 0.0475 | 0.0725 | -0.245 | -1.37 | 0.155 | -0.801 | 0.0269 | 0.081 | -0.0598 | -0.00404 |
| CGAGTCC | -0.0467 | 0.0263 | 0.212 | 0.095 | -0.0786 | 0.028 | -0.0714 | 0.0208 | 0.084 | 0.033 |
| ATGATGG | 0.102 | -0.0559 | -0.17 | 0.0717 | 0.0881 | -0.667 | 0.134 | 0.0476 | -0.106 | -0.00868 |
| AAGTTTA | 0.0669 | -0.187 | -0.302 | -2.23 | -0.229 | -0.307 | -3.34 | -0.0028 | 0.00765 | -0.18 |
| GTTGGTC | 0.0276 | 0.0462 | 0.423 | 0.999 | -0.0193 | 1.53 | 0.0888 | 0.0993 | 0.0371 | 0.00872 |
| CCCCTAC | -0.0883 | -0.117 | -0.247 | -1.84 | -0.0198 | -0.916 | -0.187 | 0.00384 | -0.191 | -0.231 |
| GCCGGAG | 0.0584 | 0.0768 | -0.0239 | 0.371 | 0.0985 | -0.205 | 0.156 | 0.156 | 0.109 | 0.125 |
| AGTTCCT | -0.447 | -0.151 | 0.0748 | -1.26 | -0.0139 | 0.217 | -3.3 | -0.0199 | 0.0668 | 0.0789 |
| CATACTG | -0.171 | -0.000692 | -0.195 | 0.304 | -0.139 | 0.596 | -0.0601 | -0.0219 | -0.18 | -0.0463 |
| CAAGGAA | -0.000232 | 0.0669 | 0.307 | 1.36 | 0.00652 | 1.52 | 0.117 | 0.0402 | -0.181 | 0.148 |
